PubChem BioAssay AID1508623 (National Center for Advancing Translational Sciences (NCATS), 2021)
Among all 48,000 compounds or so, about 450 (0.94%) were called active. Not shown: some 19% with an inconclusive outcome. Calls follow the shape of the dose curve; as a rule, active = well fitted inhibition curve with a large enough effect; inconclusive = small, poorly fitted or top-dose-only effect; inactive = no such curve, though single readings can be large or run the other way. This is one part of the list.

assay: Primary qHTS for Identification of Small Molecule Inhibitors of Huntingtin Promoter Activity; details: HEK293 HTT promoter firefly luciferase reporter (activity 0% = vehicle and -100% = no light), 24 h; series mostly up to 57.5 µM; activity change, negative = inhibition: at the top concentration; also: nearly all actives have a fitted effect of over 50% in size
Summary of the method: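 Quantitative HTS used concentration series of up to 57.5 uM final on HEK293 luciferase reporter cells, 24 h at 37 degrees C. Readout was Dual-Glo firefly luminescence.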

Structure (SMILES) | activity change, negative = inhibition
COc1ccccc1NC(=O)Cn1c(C)cc(C)c(C#N)c1=O | inactive: 2.26%
Cc1ccc(C)c(NC(=O)CN2C(=O)CCc3cc(S(=O)(=O)N4CCCCC4)ccc32)c1 | inactive: -19.3%
CC(=O)N1CCc2c(sc3c2c(=O)n(-c2ccccc2)c(=O)n3CC(=O)c2ccccc2)C1 | inactive: -2.77%
CC(=O)N1CCc2cc(S(=O)(=O)NC(Cc3ccccc3)C(=O)NCc3ccccc3)ccc21 (configuration not stated) | inactive: -17.6%
COCc1nc2ccccc2n1Cc1ccc(C(C)(C)C)cc1 | inactive: 1.31%
Cc1ccc(Cn2c(=O)n(Cc3ccccc3)c(=O)c3oc4ccccc4c32)cc1 | inactive: -17.5%
COc1ccc2[nH]c3c(c2c1)CCN(C(=O)CCC1CCCC1)C3c1ccc(F)cc1 (configuration not stated) | inactive: -25.1%
O=C(CC1N=C2c3ccccc3N=C(SCc3ccc(F)cc3)N2C1=O)NCCc1ccccc1 (configuration not stated) | inactive: -6.61%
Cc1cccc(Cn2c(-c3ccccc3)nc3ccccc32)c1 | inactive: 1.89%
O=C(CSc1nccn1-c1ccc(F)cc1)Nc1nc2ccccc2s1 | inactive: -10.7%
Cc1ccc(-c2cnc(C3CC3)o2)cc1S(=O)(=O)Nc1cccc(C)c1C | inactive: -3.05%
CC(C)(C)OC(=O)N1CCC(c2c(C(=O)N3CCN(c4ccccn4)CC3)cnn2-c2ccc(F)cc2F)CC1 | inactive: -2.18%
COc1ccc(NC(=O)C2CCCN(S(=O)(=O)c3c(C)[nH]c(=O)[nH]c3=O)C2)cc1OC (configuration not stated) | inactive: -16%
CCN1CCN(c2csc3ccc(Br)cc3c2=O)CC1 | inactive: 13.7%
CCn1c(=O)c2cc(C(=O)NCc3cc(OC)ccc3OC)sc2c2ccccc21 | inactive: -22.2%
Cc1ccc(NC(=O)C2CCCN(c3ncnc4c3nc3n4CCCCC3)C2)c(Br)c1 (configuration not stated) | inactive: -8.86% [at 11.5 µM]
CC(C)(C)c1ccc(C(=O)NCC(=O)OCc2cc(=O)n3nc(C4CC4)sc3n2)cc1 | inactive: -27.7%
COc1ccc(Cl)cc1NCc1nnc2n1CCCCC2 | inactive: -11.7%
COc1ccc(NC(=O)c2oc3ccccc3c2NC(=O)c2cc(=O)c3cc(Cl)ccc3o2)cc1 | inactive: 7.24%
COC(=O)c1c(NC(=O)c2ccc(OC)cc2OC)sc2c1CCCCC2 | inactive: -6.34% [at 11.5 µM]
CCOc1ccc2nc(NC(=O)c3nc(SCc4ccccc4F)ncc3Cl)sc2c1 | inactive: -9.18%
Cc1cc(C)cc(-n2c(SCC(=O)Nc3ccccc3)nc3c(oc4ccccc43)c2=O)c1 | inactive: -14.5%
COc1ccc2c(CNCc3cccs3)c(C(=O)O)n(Cc3ccc(F)cc3)c2c1 | inactive: -25.9%
CC(C)Cn1cc(NC(=O)N2CCN(c3ccc(F)cc3)CC2)c2ccccc2c1=O | inactive: -6.45%

Structure (SMILES) | activity change, negative = inhibition
CC(=O)c1ccc(NC(=O)CSC2=Nc3ccccc3N=C(c3ccc(F)cc3)C2)cc1 | inactive: -2.39%
CCCCn1c(=O)n(CC2CCC(C(=O)NCCCOC)CC2)c(=O)c2sccc21 (configuration not stated) | inactive: 5.67%
COc1cc(OC)cc(-c2nc3nc(C)c(CCC(=O)Nc4cc(C)cc(C)c4)c(C)n3n2)c1 | inactive: -11.5%
CCC(Cc1ccccc1)NC(=O)Cn1nc(C)n2c(cc3occc32)c1=O (configuration not stated) | inactive: -10.3%
O=C(NCc1ccc(Cl)cc1)C1CCN(S(=O)(=O)c2cccc3nonc23)CC1 | inactive: -17%
CC(=O)c1cccc(NC(=O)c2sc(-n3nc(C)c(Cc4ccccc4)c3C)nc2C)c1 | inactive: -26.5%
CCCS(=O)(=O)N1CC(=O)N(c2cccc(Cl)c2)C(C)(C(=O)NC2CCCCC2)C1 (configuration not stated) | inactive: -3.91%
CCCCN(C)CC(O)Cn1cc(/C=C/C(=O)c2ccc(Br)cc2)c2ccccc21 (configuration not stated) | inactive: -17%
Cc1cc(=O)[nH]c2nnc(SCc3ccc(Cl)cc3Cl)n12 | inactive: -13.5%
Cc1ccc2c(CNC3CCCCC3)c(C(=O)O)n(Cc3ccc(F)cc3)c2c1 | inactive: -14.8%
COCCNC(=O)c1ccc2c(c1)N(Cc1cc(C)ccc1C)C(=O)c1ccccc1S2=O (configuration not stated) | inactive: -19.4%
Cc1ccc2nc(COc3cccc(NC(=O)Nc4ccc(C)c(Cl)c4)c3)cc(=O)n2c1 | inactive: 28.4%
O=C(Cn1c(SCc2ccc(F)cc2)nc2cccnc21)Nc1ccccc1F | inactive: 2.41%
COc1cccc2cc(-c3nc(-c4ccccc4F)no3)c(=O)oc12 | inactive: 15.3%
CC(=O)OCC(=O)[C@@]1(O)[C@H](C)C[C@H]2[C@@H]3C=C(C)C4=Cc5c(cnn5-c5ccccc5)C[C@]4(C)[C@@H]3[C@@H](O)C[C@@]21C | inactive: -19.7%
O=C(Nc1ccc(F)c(Cl)c1)c1ccc2c(Cl)c3c(nc2c1)CCCC3 | inactive: -11.7%
CCOc1ccccc1CNC(=O)c1cc2c(=O)n(Cc3cccnc3)ccc2nc1C | inactive: -16.6%
Cc1ccc(CNC(=O)C2CCN(S(=O)(=O)c3cccc4nonc34)CC2)cc1 | inactive: -6.88%
COc1ccccc1NC(=O)CSc1nnc(NC(=O)NC2CCCCC2)s1 | inactive: -2.25%
Cc1nn(-c2ccccc2)c2c1cc1c(=O)[nH]c(=O)nc-1n2-c1cccc(Cl)c1 | inactive: -6.86%
COc1ccccc1/C=C/c1nc(C#N)c(N2CCN(C)CC2)o1 | inactive: 5.74%
Cc1cc(=O)c2cc(C(=O)Nc3ccc(C)c(C)c3)ccc2[nH]1 | inactive: 23.1%
CCc1ccc(NCc2cc3cc4c(cc3n(CC(=O)Nc3ccccc3OC)c2=O)OCCO4)cc1 | inactive: -13%
